Some of the results follow.
B1: chr3:45095346:45095568:-|CDS|ENSG00000163814|control|control|control (ssRNA)
RNA: GGGAGUUCUACAGUCCGACGAUCAAACAGAGCCGCAAGUUUGUCCCUGGCUGUUUCGUGUGUCUAGAAUCUCGGACCUGCAGUAGCAACCUCACCCUGACAUCUGGCUCCAAACACAAAAUCUCCUUCCUUUGUGAUGAUCUGCAACAGAGGAUUGAGCAUCA
B2: chr11:107429260:107429366:-|CDS|ENSG00000152404|unk|FALSE|unique (ssRNA)
RNA: GGGAGUUCUACAGUCCGACGAUCGAGGAAACCCACAUAUUCAGAUAAAGCACAAAAUUGUCAAGAAAGUAGAGAAUCAGACUUAGUAAAAUAUGGUAACAGUUCAAGGGAUAGAUAUGCUACAACAGAUACUGCAAAAAAUAGCAACAGAGGAUUGAGCAUCA
B3: chr10:87814449:87814585:-|CDS|ENSG00000138138|unk|FALSE|bound_elsewhere (ssRNA)
RNA: GGGAGUUCUACAGUCCGACGAUCUUUAAUUUUCCGUUUGACAAUAUUUGGUGCAGUGACAUACUUUACUAUCAAAUGGAUGGUAGAUGCAAUUGAUCCAACCAGAAAGCAAAAAGUAGAAGCUCAGAAACAGGUAUGAUUGAACAACAGAGGAUUGAGCAUCA
B4: chr15:42943230:42943331:-|3pUTR|ENSG00000159459|msi1|total|mutant (ssRNA)
RNA: GGGAGUUCUACAGUCCGACGAUCAUUAUGCUUAUGAAGUUUACUUACAAACAAGCAACUGAGUCACUUUAUUUUCUUCCGUGCCGUAUGUGAAGGCACUGGUUCAACAGGAUGGCUCCAGAACUGUGUUUUUCUAAUGUUUGGCAACAGAGGAUUGAGCAUCA
B5: chr4:41013971:41014072:-|CDS|ENSG00000163697|msi1|total|mutant (ssRNA)
RNA: GGGAGUUCUACAGUCCGACGAUCGCAGGACCCCAACAAAAACCUGAGCCCCACUGCAGUCAUCAACAUAACUUCUGAGAAGUCCGAGGGUAAAGAGCCCCACCCACAGGAUUCCUCGAGCUGUGAGAUUUUACCCUCCCAGCCCAACAGAGGAUUGAGCAUCA
B6: chr15:90501451:90501552:+|3pUTR|ENSG00000140575|msi1_unk|FALSE|overlapping (ssRNA)
RNA: GGGAGUUCUACAGUCCGACGAUCCUGAGCCUCUAUUUUCUUUCUUUGAUGUUUUGAUUCAGUAUUCUUUUAUCAUAAAUUUUUAGCAUUUAAAAAUUCACUGAUGUACAUUAAGCCAAUAAACUGCUUUAAUGAAUAACAAACCAACAGAGGAUUGAGCAUCA
B7: chr14:106324253:106324560:-|CDS|ENSG00000211952|control|control|control (ssRNA)
RNA: GGGAGUUCUACAGUCCGACGAUCCUAUUAUAGUGGGAGCACCUACUACAACCCGUCCCUCAAGAGUCGAGUCACCAUGUCAGUAGACACGUCCAAGAACCAGUUCUCCCUGAAGCUGAGCUCUGUGACCGCCGUGGACACGGCCAACAGAGGAUUGAGCAUCA
B8: chr4:143221337:143221438:+|3pUTR|ENSG00000170185|unk|total|mutant (ssRNA)
RNA: GGGAGUUCUACAGUCCGACGAUCUUGAAAGGUAACCGAUUUUCCAGAAGUAAAAUCUGAUGGUUCUAAAUCAAUCAAUGUGACCGUUCAUUUUUAACUCUCCGAAGAAUUCAGAGGAAAUUAACCCAGCUAAGUAAAAAAUCUCAACAGAGGAUUGAGCAUCA
B9: ENSG00000104643:stop:overlap|stop_codon|ENSG00000104643|stop_codon|NA|stop_codon (ssRNA)
RNA: GGGAGUUCUACAGUCCGACGAUCAUAUUCCUGGAAUGGAGGAAUGCUUGAAUAUAGCCAGUUCCAUUGAGAAUCCCUCCUGCUAGCCCUCCACCCUUCCCCGAAUACAUCUGGACACGAUUUGCAUUGUCUACUCUGGACUCCCAACAGAGGAUUGAGCAUCA
B10: chr16:70160055:70160156:+|3pUTR|ENSG00000090857|msi1|total|mutant (ssRNA)
RNA: GGGAGUUCUACAGUCCGACGAUCUUGUGCUCACCACGAAGGAUGGUCUCUGCCUUCUCUUGUCGGUGUAUGCCAUCUGAACCCCGGAACACAAAGUAUAUUGGCCUCAAACGGAGACCCAGGGUUGCCAGUUUUCCGUGGGCCCAACAGAGGAUUGAGCAUCA
B11: chr8:18872320:18872424:-|CDS|ENSG00000156011|unk|FALSE|bound_elsewhere (ssRNA)
RNA: GGGAGUUCUACAGUCCGACGAUCGCCAGAAUCAUUUCCGGAACAUUACAGGCUACAAAGGUACUGGACCAAGAUGCUGUUUCUAGUUUUUCAGUUCAGCAGGUGGAAAAAGAGCUGGACACUGCCAGUCGUAAAACACAGAGACAACAGAGGAUUGAGCAUCA
B12: chrX:55006554:55006655:+|CDS|ENSG00000169188|unk|total|mutant (ssRNA)
RNA: GGGAGUUCUACAGUCCGACGAUCAGGGCGCAAGUGGAUGGACAGCUUGCUCAGUAACUUGGGGUGCCAGUCUGCCUCUCAUGCCGGGCCCUUCAUCGACCGCUACCGCUGCUUCCAACCAAAGCAGGAGGGGGCCUUCACCUGCAACAGAGGAUUGAGCAUCA
B13: chr17:3662948:3663056:-|3pUTR|ENSG00000213977|unk|FALSE|unique (ssRNA)
RNA: GGGAGUUCUACAGUCCGACGAUCAGUUUGAUACAAAAUGUUUUUAUCGUACUCUUUGGAGAUGCCCAUUCUACUUUUGAAUUUAGCUUUUACUAAUUCGCAUCUGGAAGCUCAGCAAGUGCACAAGCCUUACUUUGGUUACCGCAACAGAGGAUUGAGCAUCA
B14: chr13:75481370:75481471:-|CDS|ENSG00000136111|msi1|total|mutant (ssRNA)
RNA: GGGAGUUCUACAGUCCGACGAUCCUCAGCGCGCCCUUCCUGCGUUGCGUCCCCGCGCCGGGCGCUGGGGCCUCGGGGGGCACCCGUCCGUCGGCCACGCAGCCCAACCCGGCGGUAUUCAUCUUCGAGCACAAGGCGCAGCAUCAACAGAGGAUUGAGCAUCA

The binders below were run against MSI1 full-length (mouse, UniProt Q61474 1-362) (assay: nsRBNS (natural sequence RNA bind-n-seq); RBNS binding buffer (assumed for nsRBNS): 25 mM Tris pH 7.5, 150 mM KCl, 3 mM MgCl2, 0.01% Triton X-100, 500 ug/ml BSA, 20 U/ml SUPERase-In, 4 C; UNK is unkempt and MSI1 is Musashi-1; names of the RNAs are library labels; protein concentration not given here; high values mean tight binding).
Chain of UniProt Q61474 (Q61474 whole entry): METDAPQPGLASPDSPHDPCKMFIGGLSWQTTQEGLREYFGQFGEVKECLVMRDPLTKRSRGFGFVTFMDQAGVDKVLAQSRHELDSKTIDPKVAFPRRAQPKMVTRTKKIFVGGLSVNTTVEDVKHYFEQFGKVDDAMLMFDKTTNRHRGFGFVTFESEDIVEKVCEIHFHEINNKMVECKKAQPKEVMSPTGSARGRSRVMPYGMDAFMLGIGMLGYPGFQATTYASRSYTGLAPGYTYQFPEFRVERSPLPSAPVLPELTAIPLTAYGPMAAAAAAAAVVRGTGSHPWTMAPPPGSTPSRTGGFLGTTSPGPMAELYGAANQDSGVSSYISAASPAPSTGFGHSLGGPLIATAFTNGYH

Going from B1 to B2, the binding signal rises from 0.476 enrichment R to 8.95 enrichment R.

Compared with B3, B4 is lower in binding signal: 0.606 enrichment R for the first, 0.237 enrichment R for the second.

First: B5
Second: B6
The binding signal of the first is lower: 0.542 enrichment R for the first, 0.987 enrichment R for the second.

Compared with B7, B8 is lower in binding signal: 0.569 enrichment R for the first, 0.392 enrichment R for the second.

Compared with B9, B10 is lower in binding signal: 3.02 enrichment R for the first, 0.294 enrichment R for the second.

Compared with B11, B12 is lower in binding signal: 0.455 enrichment R for the first, 0.438 enrichment R for the second.

Compared with B13, B14 is lower in binding signal: 0.695 enrichment R for the first, 0.239 enrichment R for the second.

From PMC12136788
